# Source: the supplement of paper PMC3334620
# In all, about 33,000 sequences were measured (“E-score (-0.5 to 0.5)”: median about -0.017, highest 2% from about 0.3 on). The list shows a part of the results.
# Target: T1, Sut1 (UniProt P53032)
# T1 sequence: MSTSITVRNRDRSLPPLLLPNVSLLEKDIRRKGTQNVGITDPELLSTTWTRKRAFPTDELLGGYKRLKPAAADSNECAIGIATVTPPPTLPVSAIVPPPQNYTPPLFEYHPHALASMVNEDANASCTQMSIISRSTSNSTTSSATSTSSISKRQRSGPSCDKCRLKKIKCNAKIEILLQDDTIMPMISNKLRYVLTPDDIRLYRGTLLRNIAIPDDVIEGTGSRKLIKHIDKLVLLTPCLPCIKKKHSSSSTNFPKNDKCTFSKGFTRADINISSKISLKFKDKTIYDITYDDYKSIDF
# Test: PBM E-score (8-mer binding enrichment) (E-score (-0.5 to 0.5)); higher = stronger / more preferred TF binding; most listed sequences are background and not binding sites
# Details: protein concentration: 200 nM; construct: GST-full length
# Method in brief: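 Detection of bound protein used fluorescent anti-GST, with scans normalised by masliner. The proteins were GST-tagged yeast transcription factors applied at about 100-200 nM to universal all-10-mer Agilent arrays made double-stranded by primer extension. Each ungapped eight-base word, pooled with its reverse complement, was scored with an E-score from the Universal PBM Analysis Suite.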
row,Sequence,PBM E-score
1,AGTGATAC,0.0417
2,ATGTCTAA,0.0635
3,GAACAGGA,-0.116
4,CAAGTTGC,0.0786
5,CCTCCACA,-0.161
6,GGTTCCCA,-0.185
7,GGAATGAC,0.0694
8,CGCCGTTA,-0.0973
9,AAATCAGT,0.0371
10,ATTGGAGC,-0.0294
11,ATAACCAC,-0.0445
12,GTCACGAC,-0.0628
13,CCCAACAG,-0.21
14,ACGTTAGA,-0.00513
15,CAGACGAC,-0.213
16,CAAACGCC,-0.15
17,AAGTCACA,-0.0682
18,GAACTCCC,0.0319
19,ACTTTATC,0.151
20,GGAGCTTA,0.21
21,GGGCCTCA,-0.224
22,ACCGACTA,-0.0779
23,AGCTGCAA,-0.122
24,GGGTGGAC,-0.153
25,GACCCCGA,0.0897

row,Sequence,PBM E-score
1,CGATTTGA,0.0307
2,CTAATTGC,0.146
3,CAGCGCCC,-0.26
4,GGGTCTCA,-0.276
5,GTCGGCAA,-0.104
6,CCTGTTGC,-0.0841
7,CCGAGCGA,0.117
8,CAAATGCC,-0.00698
9,AAGACCCG,-0.11
10,AATAGGCT,0.046
11,GGGATAAC,0.0828
12,AACAGCGC,-0.178
13,ACAACTAG,0.0486
14,GGTTCCAA,0.194
15,AAGCCTCA,-0.00984
16,TCTCCTAA,0.113
17,ACTCCTCC,-0.0972
18,AGGCATGA,-0.187
19,TCGAAAAA,0.206
20,ACGTAAAC,-0.161
21,TACTTCGA,0.196
22,AAACCGTC,-0.0399
23,AATGCTAT,0.0359
24,GGGCTAGA,-0.179
25,CAGCCTTC,-0.18

row,Sequence,PBM E-score
1,AGTCCCGC,-0.152
2,ACGTTGGA,-0.147
3,GTACTGGA,-0.0147
4,GAGTCTGC,-0.144
5,AAGCTGTC,-0.141
6,CCCTAACA,0.071
7,GAACGTAA,0.163
8,AGGGACGC,-0.212
9,ACCTGCGC,0.0264
10,AGGCATCG,-0.203
11,CCAAGTAC,-0.134
12,AGGCCCTC,-0.127
13,AACGAGAT,0.0198
14,GATTCTCA,0.0723
15,AGAACGTC,-0.0575
16,AAAACACT,0.118
17,CTTCACTC,0.0242
18,GGCTTACC,-0.188
19,CGTTAAGC,0.125
20,GAGGGCCA,-0.136
21,AAAACGCC,0.16
22,ACCTCTTC,-0.0745
23,GCTATCTA,-0.0136
24,CTGTTGCA,0.00754
25,AGACTGGC,-0.272

row,Sequence,PBM E-score
1,GACCTCAC,-0.0574
2,CATCGTTA,0.0603
3,ATTCATTA,0.284
4,CATTGTGG,-0.11
5,TCCCAGCA,-0.0226
6,CGGTATAA,0.109
7,CGGTTAAC,-0.0549
8,ATATCCTG,-0.11
9,AGGCCTAC,-0.148
10,AAGCCGTG,-0.141
11,CGGGTTTC,0.0845
12,AACAGATT,0.0949
13,GTCATGGA,-0.161
14,TAGCCGCA,-0.119
15,AGAAAACA,0.229
16,ACAAATGC,0.0432
17,CGGAAACC,0.139
18,AAAGGACA,0.0759
19,AACGGGGT,0.0207
20,GTAAAGAC,0.121
21,CCCTCAAA,-0.0431
22,AGGGATCA,-0.192
23,ATTAATTC,0.298
24,AGCAACCC,-0.215
25,GTGAGAAC,-0.0779

row,Sequence,PBM E-score
1,CACTGAGC,-0.171
2,GCCCTGAC,-0.27
3,TACACTGA,-0.0304
4,GAAGCGAA,0.00568
5,AGTATCGG,0.176
6,ACATTCGT,0.078
7,ACAGACTG,-0.186
8,TCACACGA,-0.0807
9,ATGATTAA,0.225
10,ACAAAGGA,0.0444
11,CAATTAGG,0.0497
12,CTCCAATA,0.171
13,ATCGGCCG,-0.0616
14,CACCTATA,-0.0952
15,AGACGTCG,-0.129
16,GACGGTAA,-0.0997
17,GATGGCGA,-0.0183
18,AGAATACA,0.117
19,AGGGCAGG,-0.195
20,CGGGAGGA,-0.122
21,ATCTTATG,-0.106
22,ACCTGGCA,-0.116
23,AAATTTCA,0.00137
24,ACTGGGTA,-0.253
25,AATATCGT,0.175

row,Sequence,PBM E-score
1,GTAGACCA,-0.179
2,ATTGGATA,0.152
3,CGTTTCAA,0.115
4,TGCTAACA,0.0592
5,ACCAGTAT,0.0585
6,GGGCACCC,-0.266
7,TACCACTA,-0.118
8,AAGAAACA,0.15
9,ATCAAATC,0.138
10,CAGGACAG,-0.0623
11,GAGGCCAA,-0.0474
12,AATTGAGA,0.121
13,CCGATTAC,0.12
14,CGCCCGTA,-0.214
15,CGCCTCGC,-0.191
16,ATTTATAG,0.178
17,AATGATCG,0.0864
18,AGCTTGTC,-0.275
19,ACCACGAG,-0.0958
20,GCACGGCC,-0.282
21,ATGGGACA,-0.334
22,ACTTACTC,0.0391
23,CATTAGAA,0.179
24,ACATTAGC,-0.0982
25,ACTATGAT,0.144

row,Sequence,PBM E-score
1,CATAAGTA,-0.0995
2,CAAACTGA,-0.00762
3,AATGGTAA,0.206
4,CGACCGCG,-0.108
5,ACACACCT,0.0728
6,GAAATAAA,0.261
7,CGCCTGAG,-0.194
8,ATATTACG,0.273
9,CGGACGCA,-0.0415
10,CCACCCCA,-0.221
11,GTGTGCAA,-0.123
12,ACGATGAG,0.063
13,CGATCACA,0.239
14,GAGACATA,0.173
15,GCATTCAA,0.142
16,GCTGTTGA,0.0266
17,CCCTAATA,-0.0819
18,CGTTCTAG,0.0245
19,CTAGACAG,-0.138
20,ACTCCCAA,-0.00149
21,CTCGAAAG,0.0872
22,ACTAGTAC,-0.0353
